According to PubChem BioAssay AID488969 (Vanderbilt High Throughput Screening Facility, 2010):
Over roughly 110,000 compounds, “z-score” has its median near -0.1; the highest 2% begin near 2. Some of the results follow. The source made the active and inactive calls.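 Rule for the calls: active = z-score in the third read window above 3 or below -3; inactive = the rest.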

These compounds were tested against Metabotropic glutamate receptor 8 (Rattus norvegicus) (UniProt P70579) (assay: rat mGluR8 modulators via GIRK flux, primary screen, cell-based, thallium flux, HTS (AID 488969)). Details: HEK293 rat mGluR8, GIRK (G protein-gated inwardly rectifying potassium channel) thallium flux, FluoZin2; at 10 µM; stronger effect = higher value; submaximal glutamate (EC20) added with thallium.
UniProt P70579, sequence (P70579 whole entry, looked up): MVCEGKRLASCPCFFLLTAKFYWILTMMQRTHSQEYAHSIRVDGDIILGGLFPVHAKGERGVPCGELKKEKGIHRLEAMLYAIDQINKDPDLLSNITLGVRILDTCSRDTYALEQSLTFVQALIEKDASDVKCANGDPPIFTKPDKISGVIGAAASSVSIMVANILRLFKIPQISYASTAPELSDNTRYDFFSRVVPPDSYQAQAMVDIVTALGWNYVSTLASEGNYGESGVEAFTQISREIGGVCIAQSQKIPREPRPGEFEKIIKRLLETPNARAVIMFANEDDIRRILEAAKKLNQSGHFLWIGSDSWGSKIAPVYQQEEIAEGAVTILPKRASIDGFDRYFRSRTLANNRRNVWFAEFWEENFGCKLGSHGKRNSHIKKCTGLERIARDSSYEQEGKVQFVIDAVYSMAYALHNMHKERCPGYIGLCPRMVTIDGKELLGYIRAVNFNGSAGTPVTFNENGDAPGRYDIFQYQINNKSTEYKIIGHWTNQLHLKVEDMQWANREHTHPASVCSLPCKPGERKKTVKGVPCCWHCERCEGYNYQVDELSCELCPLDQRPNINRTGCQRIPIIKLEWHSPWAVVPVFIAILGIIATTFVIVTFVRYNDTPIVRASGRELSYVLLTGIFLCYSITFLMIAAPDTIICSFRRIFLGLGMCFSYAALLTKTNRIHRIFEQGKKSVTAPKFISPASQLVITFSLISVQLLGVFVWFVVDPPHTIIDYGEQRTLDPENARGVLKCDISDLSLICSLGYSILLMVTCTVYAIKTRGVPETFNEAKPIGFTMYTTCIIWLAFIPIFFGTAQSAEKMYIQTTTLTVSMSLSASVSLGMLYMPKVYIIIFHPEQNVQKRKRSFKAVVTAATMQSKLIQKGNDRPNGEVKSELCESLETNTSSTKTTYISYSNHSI

Structure (SMILES) | z-score
CNC(=S)N/N=C(\C)c1ccc(Cl)s1 | active: 3.13
Cc1ccc(C(=O)N2CCSCC2)cc1 | 0.55
COc1cccc(/C=N/Nc2nc(N3CCCC3)nc(N3CCCC3)n2)c1O | -0.936
COc1ccc(N=C2C(=O)Nc3c(C)cccc32)cc1 | -0.214
O=[N+]([O-])c1ccc(Cl)c(/C=N/N2CCN(C3c4ccccc4-c4ccccc43)CC2)c1 | -0.279
CCN1CCN(CCNC(=O)CSCc2nc(-c3ccc(OC)c(OC)c3)oc2C)CC1 | -0.665
Cc1ccc(-n2nnnc2SCC(=O)Nc2sc(C)c(C)c2C#N)cc1C | 0.0896
CCCSc1nsc(NC(=O)C(c2ccccc2)c2ccccc2)n1 | -0.766
Nc1ccc(O)cc1C(=O)OCC(=O)C12CC3CC(CC(C3)C1)C2 | 1.38
COCCCNC(=O)CSc1ccc(Cl)cc1 | -0.166
O=c1[nH]c(SCc2ccccc2Cl)nc2c1CCCC2 | active: -3.29
Cc1ccc(Cc2cnc(NC(=O)c3cccs3)s2)cc1 | 0.394
Cc1cc2nc(C)c(Cc3ccccc3)c(=O)n2[nH]1 | -0.963
CCCCN(C(=O)c1ccc(S(=O)(=O)N(C)C)cc1)c1nc2ccccc2s1 | 0.11
c1ccc(Nc2nc3ccccc3o2)cc1 | 0.464
Cc1ccc(C)c(NC(=S)N(CCc2nc3cc(C)c(C)cc3[nH]2)Cc2cccnc2)c1 | -0.422

Structure (SMILES) | z-score
O=C(Nc1ccc(N2C(=O)C3C4C=CC(C4)C3C2=O)cc1)Nc1cccnc1 (configuration not stated) | 0.351
Cc1nnc2c3ccccc3c(-c3ccccc3)nn12 | 0.188
CN(C)CCCC1(O)c2ccccc2C=Cc2ccccc21 | -0.225
CCN(c1ccccc1)S(=O)(=O)c1ccc(NC(=O)C(C)(C)C)cc1 | -0.475
CC1CCN(CCCOc2ccc(OCc3ccccc3)cc2)CC1 | 0.441
O=c1c(S(=O)(=O)c2ccc(Cl)cc2)cn(Cc2ccccc2)c2ccc(F)cc12 | -0.29
CC1(C)NC(=O)N(CCOCCOc2ccc3ccccc3c2Br)C1=O | -0.136
COC(=O)c1ccccc1NC(=O)c1ccc(COc2cc(C)cc(C)c2)o1 | -0.0413
COc1ccc(CCCc2nnc(SCC(=O)Nc3cc(C)ccc3C)o2)cc1 | 0.086
CN(C)CCCOC(=O)C1c2ccccc2Oc2ccccc21 | -0.226
Nc1nnc(SCC(=O)N2CCN(c3ccccc3)CC2)n1-c1ccccc1 | -0.0261
CC(=O)NC(CCS(C)(=O)=O)C(=O)Nc1ccc(C)c(F)c1 (configuration not stated) | 0.461
N#CCSCC(=O)Nc1ccc(Cl)cc1 | 0.285
CNC(=S)N/N=C/c1ccc(C(C)C)cc1 | active: 3.01
CC(NC(=O)COC(=O)Cn1cnc2ccccc2c1=O)C1CC2CCC1C2 (configuration not stated) | -0.141
CCOC(=O)CSc1nnc2n(Cc3ccccc3)c(=O)c3c4c(sc3n12)CCC4 | -0.815
